Consider five substances from article PMC6556028.

Sequences of proteins named here, by UniProt entry; tags and fusion partners are left off.
UniProt Q9NQB0: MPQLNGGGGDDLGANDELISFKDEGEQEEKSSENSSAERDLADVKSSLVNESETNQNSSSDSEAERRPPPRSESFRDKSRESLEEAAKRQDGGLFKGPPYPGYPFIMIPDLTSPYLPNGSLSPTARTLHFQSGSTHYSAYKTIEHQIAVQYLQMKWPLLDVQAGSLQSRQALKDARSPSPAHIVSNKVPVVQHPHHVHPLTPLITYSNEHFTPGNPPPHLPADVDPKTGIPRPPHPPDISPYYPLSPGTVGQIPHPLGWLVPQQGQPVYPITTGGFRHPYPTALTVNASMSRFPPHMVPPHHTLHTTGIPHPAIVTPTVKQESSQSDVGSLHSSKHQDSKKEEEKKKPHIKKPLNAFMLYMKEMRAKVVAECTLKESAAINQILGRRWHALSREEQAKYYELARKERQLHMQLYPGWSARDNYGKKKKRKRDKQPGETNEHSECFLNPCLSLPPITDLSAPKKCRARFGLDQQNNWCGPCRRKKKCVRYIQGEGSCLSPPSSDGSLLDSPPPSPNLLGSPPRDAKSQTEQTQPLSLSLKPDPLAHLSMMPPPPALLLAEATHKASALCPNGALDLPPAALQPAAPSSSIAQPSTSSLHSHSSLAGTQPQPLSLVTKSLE
UniProt O15169: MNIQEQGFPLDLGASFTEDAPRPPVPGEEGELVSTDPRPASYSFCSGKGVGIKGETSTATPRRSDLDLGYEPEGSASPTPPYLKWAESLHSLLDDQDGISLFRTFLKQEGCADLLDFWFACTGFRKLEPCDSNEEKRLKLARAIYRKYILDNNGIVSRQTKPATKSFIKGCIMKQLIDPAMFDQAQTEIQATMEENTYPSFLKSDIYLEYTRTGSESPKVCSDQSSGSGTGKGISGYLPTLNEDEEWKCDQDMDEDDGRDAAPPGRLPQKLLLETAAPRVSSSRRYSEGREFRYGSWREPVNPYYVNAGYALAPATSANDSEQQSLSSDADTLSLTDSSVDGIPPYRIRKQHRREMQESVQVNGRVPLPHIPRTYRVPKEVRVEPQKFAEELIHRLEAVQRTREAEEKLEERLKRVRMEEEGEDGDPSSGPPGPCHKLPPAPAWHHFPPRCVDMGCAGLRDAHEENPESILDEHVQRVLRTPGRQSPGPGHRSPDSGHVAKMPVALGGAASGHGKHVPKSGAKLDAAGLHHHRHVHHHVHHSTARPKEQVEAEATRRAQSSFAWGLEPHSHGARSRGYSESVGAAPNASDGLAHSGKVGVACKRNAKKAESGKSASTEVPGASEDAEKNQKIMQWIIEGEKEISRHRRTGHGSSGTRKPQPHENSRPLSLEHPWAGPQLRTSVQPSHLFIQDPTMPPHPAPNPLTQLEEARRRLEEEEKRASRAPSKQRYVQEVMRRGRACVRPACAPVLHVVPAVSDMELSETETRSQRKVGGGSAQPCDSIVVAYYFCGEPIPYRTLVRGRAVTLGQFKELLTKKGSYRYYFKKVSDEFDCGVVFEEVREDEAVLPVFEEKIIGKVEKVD
UniProt P49841: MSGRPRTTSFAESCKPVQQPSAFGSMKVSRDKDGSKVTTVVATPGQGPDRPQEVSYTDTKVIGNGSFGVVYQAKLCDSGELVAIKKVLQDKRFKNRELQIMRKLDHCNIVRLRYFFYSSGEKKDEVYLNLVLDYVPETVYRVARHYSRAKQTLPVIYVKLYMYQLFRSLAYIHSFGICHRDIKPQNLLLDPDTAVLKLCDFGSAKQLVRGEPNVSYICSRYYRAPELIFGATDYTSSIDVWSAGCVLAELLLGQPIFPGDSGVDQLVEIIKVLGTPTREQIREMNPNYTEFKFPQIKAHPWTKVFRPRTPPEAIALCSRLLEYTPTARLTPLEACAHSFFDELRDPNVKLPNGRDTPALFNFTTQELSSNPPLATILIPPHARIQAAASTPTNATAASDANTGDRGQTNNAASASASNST
UniProt P35222: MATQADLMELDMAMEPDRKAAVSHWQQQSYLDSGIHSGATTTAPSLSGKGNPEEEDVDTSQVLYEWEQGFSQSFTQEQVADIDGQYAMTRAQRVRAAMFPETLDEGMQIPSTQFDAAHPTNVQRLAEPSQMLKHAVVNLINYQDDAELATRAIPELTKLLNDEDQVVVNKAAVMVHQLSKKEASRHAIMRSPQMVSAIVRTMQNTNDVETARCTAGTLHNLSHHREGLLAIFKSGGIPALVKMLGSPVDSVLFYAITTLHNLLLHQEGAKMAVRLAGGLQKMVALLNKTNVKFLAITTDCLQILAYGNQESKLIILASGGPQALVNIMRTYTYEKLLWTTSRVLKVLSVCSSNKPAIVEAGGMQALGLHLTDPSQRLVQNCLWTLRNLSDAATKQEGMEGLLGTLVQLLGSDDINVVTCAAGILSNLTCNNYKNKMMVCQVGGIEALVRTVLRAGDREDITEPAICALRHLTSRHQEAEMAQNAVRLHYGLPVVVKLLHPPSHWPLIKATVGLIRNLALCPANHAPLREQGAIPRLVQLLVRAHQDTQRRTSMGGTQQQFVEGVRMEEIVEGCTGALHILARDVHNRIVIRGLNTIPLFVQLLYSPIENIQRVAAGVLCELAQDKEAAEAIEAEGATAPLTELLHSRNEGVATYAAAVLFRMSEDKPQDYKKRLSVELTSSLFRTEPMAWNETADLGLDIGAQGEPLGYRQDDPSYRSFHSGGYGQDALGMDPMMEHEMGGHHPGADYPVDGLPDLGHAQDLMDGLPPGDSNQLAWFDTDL

Experiment [1] concerns the target T1, Nek2B (NIMA-related kinase 2, spliced isomer B), endogenous (human (endogenous in Hs578T)) (UniProt P51955).
T1 sequence: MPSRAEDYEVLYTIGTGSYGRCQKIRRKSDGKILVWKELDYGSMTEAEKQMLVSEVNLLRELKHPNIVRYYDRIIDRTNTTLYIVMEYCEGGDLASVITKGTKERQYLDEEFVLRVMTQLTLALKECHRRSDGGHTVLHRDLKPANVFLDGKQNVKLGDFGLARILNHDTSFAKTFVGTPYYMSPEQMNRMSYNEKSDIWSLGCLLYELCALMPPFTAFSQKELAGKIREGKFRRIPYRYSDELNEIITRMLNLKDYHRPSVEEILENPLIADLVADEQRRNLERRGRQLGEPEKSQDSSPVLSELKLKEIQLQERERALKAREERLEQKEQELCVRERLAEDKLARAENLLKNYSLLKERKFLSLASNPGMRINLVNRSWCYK
Put plainly: co-IP; nuclear and cytoplasmic fractions of Hs578T cells (nucleoplasmic separation, NE-PER reagents), endogenous proteins; precipitating antibody not stated.

Experiment [2] addresses T1, Nek2B (NIMA-related kinase 2, spliced isomer B), endogenous (human (endogenous in Hs578T)). As to the kind of experiment: co-IP; endogenous proteins of Hs578T cell lysate; lysate incubated 4 h at 4 °C with antibody (Nek2B antibody in Fig. 7a) and protein A/G beads, washed with low salt lysis buffer, immunoblot.
For experiment [3], the target named is T2, FLAG-Nek2B (UniProt P51955).
T2 sequence: T1 sequence
As to the kind of experiment: co-IP; Hs578T cells transfected with HA-β-catenin and FLAG-Nek2B; FLAG tag used to precipitate Nek2B (anti-FLAG agarose, 4 h at 4 °C), immunoblot for β-catenin. Background: Immunoblotting shows a protein as a band on a membrane.

Results are given in words; binding and its absence hold for the method and conditions named. Binding seen in cells or lysates may run through a third protein. Some binding calls cover weakened binding; strength is not graded here. For some of these results: Sequences can lack the tags named with a protein.

In the case of “TCF4, endogenous (from UniProt Q9NQB0 1-619)”, the binding entry in experiment [1] and in experiment [2] was “binds” each time.

As for “Axin l, endogenous (from UniProt O15169 1-862)”, in experiment [2], the binding entry is on record as “no binding”.

Take “GSK3β, endogenous (from UniProt P49841 1-420) (enzyme)”: the binding entry in experiment [2] is “no binding”.

Take “HA-β-catenin (from UniProt P35222 1-781)”: the binding result in experiment [3] is listed as “binds”.

On to “β-catenin, endogenous (from UniProt P35222 1-781)”, for which the binding result in experiment [1] and in experiment [2] was “binds” throughout.
